# Reference: ChEMBL document CHEMBL4888484, “Replenishing the malaria drug discovery pipeline: Screening and hit evaluation of the MMV Hit Generation Library 1 (HGL1) against asexual blood stage Plasmodium falciparum ,using a nano luciferase reporter read-out” (2022)
# The campaign covered roughly 150,000 compounds. About 540 (0.36%) showed an effect of 50% or more. This is one part of the list.
# Tested on: Plasmodium falciparum
# Assay: Primary screen in NF54 nanoGlo assay, in single point, at 2uM, 72h; a lower Z score goes with more inhibition
# Type: functional, Erythrocyte
# Conditions: timepoint 72 hour
Compound,% Inhibition [%],Z score
CC(=O)Nc1nc(CN[C@@H](C)c2ncc(C)s2)cs1,-12,1.49
N#CC1CCCC1NC(=O)Nc1cnn(-c2cccc(C(F)(F)F)c2)c1 (stereo unspecified),-10,1.45
O=C(NCc1nc(C2CCC(F)(F)CC2)no1)c1ccc(Br)o1,-5,0.78
O=C(COC[C@H]1CCCCO1)NCc1cccnc1,-4,0.55
OC1CCC(NC(=NC2CC2)NCc2ccccc2F)CC1 (stereo unspecified),-9,1.4
COc1ccc(-c2nn(-c3ccccc3)cc2C(=O)N(C)C[C@H]2COc3ccccc3O2)c(OC)c1,2,-0.45
O=C(CC1CCCC1)N1CCC[C@H](c2n[nH]c(=O)n2-c2ccccc2)C1,-4,0.61
CN(CC(=O)N(C)C)Cc1csc(C(C)(C)C)n1,-1,0.07
CN(C)c1cc(O[C@H]2CCN(C(=O)CC3CCCC3)C2)ncn1,-7,0.9
COc1nccc(-c2cccc(C(=O)N3[C@@H]4CC[C@H]3CN(C)CC4)c2)c1C#N,0,-0.03
Cc1c(C(=O)N2CCC[C@H](N)C2)nnn1-c1cccc2ncccc12,-1,0.23
O=C(CCNc1ccc(Cc2ccncc2)cc1)c1ccc2c(c1)OCO2,9,-1.21
CO[C@H]1CCN(c2ncnc3c(-c4ccccc4)nsc23)C1,2,-0.13
OC1(CNC[C@H]2CCC3(CCOCC3)CO2)CCCCC1,-2,0.31
CCC(=O)N(Cc1ccc(OC)cc1)Cc1cc2ccc(F)cc2nc1N1CCC(O)CC1,-7,1.01
Cc1ccc(-n2c(=O)c3ccccc3n(CC(=O)NCc3cccnc3)c2=O)cc1Cl,36,-4.8
C1=C(CN2CCC[C@H](CN3CCOCC3)C2)CCCC1,5,-0.75
CC(=O)N1CCN(C(=O)c2cc(-c3ccc(C(C)(C)C)cc3)n(C)n2)CC1,3,-0.33
O=C(Cn1nc(C2CC2)nc1C1CC1)N1CCOCC1,37,-1.4
CC1CC(C)CN(C(=O)C2CC(=O)N(C3CC3)C2)C1 (stereo unspecified),-7,0.94
NC(=O)[C@@H]1CCC[C@@H]1Nc1cc(-c2ccccc2F)nc2ccnn12,3,-0.33
O=C(CCn1nnc2cc(S(=O)(=O)N3CCCC3)ccc21)NCc1cccnc1,-26,2.6
COCC[C@H]1COCCN1S(=O)(=O)N1CCc2ccccc2C1,-12,2.22
